Experimental data as given in PubChem BioAssay (Tox21).
Where “and” joins values, the source holds several entries; their conditions need not be identical. Identical values can stand only once. Some structures have more than one record in an assay (separate samples or runs), and their calls can disagree. Calls of active or inactive are those of the source. Unless noted, calls follow the shape of the dose curve; as a rule, active = well fitted curve in the direction sought with a large enough effect in the repeat runs; inconclusive = weak or mixed curves; inactive = no such curve, though single readings can be large; an effect the other way counts as inactive or inconclusive.

Legend:
[1] = qHTS assay for identifying genotoxic compounds that show differential cytotoxicity against isogenic chicken DT40 cell lines with known DNA damage response pathways - wild type cell line (AID 743012); details: DT40 wild type chicken cells viability, CellTiter-Glo, 40 h; activity change, negative = cytotoxicity: at 68.4 µM (top of the series) unless noted; also: nearly all actives have a fitted effect of over 60% in size; also: potency is read from the fitted curve at half-maximal effect; as to activity change, negative = cytotoxicity: % is scaled to controls: 0 for no effect and ±100 for the full control effect
Summary of the method: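 Cytotoxicity in repair-proficient parental chicken DT40 cells serves as the comparator for Rad54/Ku70- and Rev3-deficient lines. Cells were exposed to compounds for 40 h at 37 C/5% CO2, and ATP-based luminescence (CellTiter-Glo) measured viability.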

[2] = qHTS assay for identifying genotoxic compounds that show differential cytotoxicity against isogenic chicken DT40 cell lines with known DNA damage response pathways - Rev3 mutant cell line (AID 743014); details: chicken DT40 Rev3-/- viability, CellTiter-Glo, 40 h; activity, negative = cytotoxicity: at 68.4 µM (top of the series) unless noted; also: nearly all actives have a fitted effect of over 55% in size; also: potency is read from the fitted curve at half-maximal effect
[3] = qHTS assay for identifying genotoxic compounds that show differential cytotoxicity against isogenic chicken DT40 cell lines with known DNA damage response pathways - Rad54/Ku70 mutant cell line (AID 743015); details: DT40 Rad54/Ku70 mutant viability, CellTiter-Glo, 40 h; activity change, negative = cytotoxicity: at 66.8 µM (top of the series); also: potency is read from the fitted curve at half-maximal effect; nearly all actives have a fitted effect of over 60% in size
[4] = qHTS assay to identify small molecule antagonists of the thyroid receptor (TR) signaling pathway - cell viability counter screen (AID 743064); details: GH3.TRE-Luc viability, CellTiter-Fluor, 24 h; activity change, negative = cytotoxic: at 70.3 µM (top of the series) unless noted; also: nearly all actives have a fitted effect of over 50% in size; also: potency is read from the fitted curve at half-maximal effect; as to activity change, negative = cytotoxic: % is scaled to controls: 0 for no effect and ±100 for the full control effect
Summary of the method: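 Same-well viability check: GH3.TRE-Luc cells stimulated with 1 nM T3 alongside test compound for 23.5 h, followed by CellTiter-Fluor fluorescence.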

[5] = qHTS assay to identify small molecule antagonists of the androgen receptor (AR) signaling pathway - cell viability counter screen (AID 743033; also: potency is read from the fitted curve at half-maximal effect; nearly all actives have a fitted effect of over 45% in size); details: AR-bla HEK293 viability, CellTiter-Glo luminescence, 16 h; activity change, negative = cytotoxicity: at 58.5 µM (top of the series)
[6] = qHTS assay to identify small molecule antagonists of the thyroid receptor (TR) signaling pathway (AID 743065); also: potency is read from the fitted curve at half-maximal effect; nearly all actives have a fitted effect of over 55% in size
Summary of the method: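 Antagonism measured as loss of luciferase signal in GH3 cells stably carrying a TRE-luciferase reporter, co-treated with compound and T3 (1 nM final) for 23.5 h at 37 C. Viability was read in the same well by CellTiter-Fluor.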

[7] = test system: thyroid hormone receptor (rat, GH3 cells); assay: qHTS assay to identify small molecule agonists of the thyroid receptor (TR) signaling pathway (AID 743066; calls by dose curve; also: potency is read from the fitted curve at half-maximal effect); details: GH3.TRE-Luc cells, TR agonist luciferase, 24 h; activation: at 83.9 µM (top of the series) unless noted
[8] = target: Estrogen receptor (Homo sapiens) (UniProt P03372); assay: qHTS assay to identify small molecule antagonists of the estrogen receptor alpha (ER-alpha) signaling pathway (AID 743069; active = well fitted curve in the direction sought with a large enough effect in the signal ratio in the repeat runs, not every such curve was filed as active; inconclusive = weak or mixed curves, or effect the other way; inactive = no such curve, though single readings can be large or run the other way; the % refers to the signal ratio; also: potency is read from the fitted curve at half-maximal effect); details: HEK293 ER-alpha-UAS-bla, beta-lactamase ratio, antagonist mode; activity, negative = inhibition: at 69.4 µM (top of the series) unless noted
UniProt P03372, sequence (P03372 whole entry, looked up): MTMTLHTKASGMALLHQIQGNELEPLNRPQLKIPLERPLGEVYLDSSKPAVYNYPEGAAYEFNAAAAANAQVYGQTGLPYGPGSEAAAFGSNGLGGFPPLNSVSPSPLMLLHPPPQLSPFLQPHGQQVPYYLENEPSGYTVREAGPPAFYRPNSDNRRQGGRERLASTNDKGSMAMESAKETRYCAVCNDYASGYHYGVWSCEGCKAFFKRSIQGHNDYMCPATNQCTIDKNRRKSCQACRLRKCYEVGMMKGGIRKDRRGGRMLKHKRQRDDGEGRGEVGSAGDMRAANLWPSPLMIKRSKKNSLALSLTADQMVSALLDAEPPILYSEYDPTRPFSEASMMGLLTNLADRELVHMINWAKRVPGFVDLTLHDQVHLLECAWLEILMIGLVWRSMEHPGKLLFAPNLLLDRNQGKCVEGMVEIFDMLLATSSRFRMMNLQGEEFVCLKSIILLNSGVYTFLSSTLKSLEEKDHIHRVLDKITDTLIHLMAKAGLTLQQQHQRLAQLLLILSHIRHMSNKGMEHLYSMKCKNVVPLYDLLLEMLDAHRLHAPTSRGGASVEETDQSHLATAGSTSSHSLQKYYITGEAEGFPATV
Summary of the method: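 Fluorescence intensity from a beta-lactamase FRET substrate served as the read-out. Cells: HEK293 with stably integrated ER-alpha-UAS-bla reporter. Agonist 17beta-estradiol was co-added with compounds; incubation 18 hr at 37C, substrate 2 hr at room temperature.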

[9] = target: Estrogen receptor (Homo sapiens) (UniProt P03372); assay: qHTS assay to identify small molecule agonists of the estrogen receptor alpha (ER-alpha) signaling pathway (AID 743075; calls by dose curve; also: potency is read from the fitted curve at half-maximal effect)
[10] = target: Estrogen receptor (Homo sapiens) (UniProt P03372); assay: qHTS assay to identify small molecule agonists of the estrogen receptor alpha (ER-alpha) signaling pathway using the BG1 cell line (AID 743079); details: BG1Luc4E2 cells, ERE-luciferase agonist, 22 h; activation: at 70.3 µM (top of the series) unless noted; also: potency is read from the fitted curve at half-maximal effect; nearly all actives have a fitted effect of over 20% in size
[11] = qHTS assay to identify small molecule antagonists of the estrogen receptor alpha (ER-alpha) signaling pathway using the BG1 cell line (AID 743080; calls by dose curve;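 also: BG1 cells stimulated with 17beta-estradiol alongside compound; potency is read from the fitted curve at half-maximal effect; nearly all actives have a fitted effect of over 25% in size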); details: BG1Luc4E2 ERE-luciferase antagonist mode, luminescence; activity change, negative = inhibition: at 70.3 µM (top of the series) unless noted
Summary of the method: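 Quantitative HTS on the Tox21 10K library: BG1 cells with endogenous ER-alpha and ERE-luciferase reporter, 17beta-estradiol stimulation, 21.5 h compound exposure, luminescence endpoint with parallel fluorescence cytotoxicity counter-read.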

Aromatase (Homo sapiens) = Aromatase (Homo sapiens) (UniProt P11511); assay: qHTS assay to identify aromatase inhibitors (AID 743083); also: potency is read from the fitted curve at half-maximal effect; nearly all actives have a fitted effect of over 55% in size
UniProt P11511, sequence (P11511 whole entry, looked up): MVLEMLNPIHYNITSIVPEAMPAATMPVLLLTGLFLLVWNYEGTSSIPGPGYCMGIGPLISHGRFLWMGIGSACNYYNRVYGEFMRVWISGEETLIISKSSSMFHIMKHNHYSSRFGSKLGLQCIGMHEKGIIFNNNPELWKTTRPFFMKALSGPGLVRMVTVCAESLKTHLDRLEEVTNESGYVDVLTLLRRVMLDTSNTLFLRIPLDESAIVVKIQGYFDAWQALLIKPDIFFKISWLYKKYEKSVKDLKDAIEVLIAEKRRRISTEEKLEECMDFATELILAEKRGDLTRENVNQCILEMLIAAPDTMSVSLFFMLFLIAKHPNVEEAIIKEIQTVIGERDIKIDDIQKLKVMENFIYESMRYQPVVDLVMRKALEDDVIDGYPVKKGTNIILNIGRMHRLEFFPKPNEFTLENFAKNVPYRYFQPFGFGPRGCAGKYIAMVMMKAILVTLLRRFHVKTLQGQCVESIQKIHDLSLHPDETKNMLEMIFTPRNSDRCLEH

[12] = qHTS assay to identify aromatase inhibitors - cell viability counter screen (AID 743084); details: MCF-7 aro ERE viability, CellTiter-Fluor, 24 h; activity change, negative = cytotoxicity: at 70.3 µM (top of the series);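 also: cells stimulated with testosterone during compound exposure; potency is read from the fitted curve at half-maximal effect; nearly all actives have a fitted effect of over 55% in size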
[13] = target: Androgen receptor (Homo sapiens) (UniProt P10275); assay: qHTS assay to identify small molecule antagonists of the androgen receptor (AR) signaling pathway (AID 743035; active = well fitted inhibition curve with a large enough effect in the signal ratio in the repeat runs, not every such curve was filed as active; inconclusive = weak or mixed curves, or effect the other way; inactive = no such curve, though single readings can be large or run the other way; the % refers to the signal ratio; also: % is scaled to controls: 0 for no effect and ±100 for the full control effect); details: HEK293 AR-UAS-bla, R1881-stimulated, beta-lactamase FRET, 16 h; activity change, negative = inhibition: at 58.5 µM (top of the series) unless noted
UniProt P10275, sequence (P10275 whole entry, looked up): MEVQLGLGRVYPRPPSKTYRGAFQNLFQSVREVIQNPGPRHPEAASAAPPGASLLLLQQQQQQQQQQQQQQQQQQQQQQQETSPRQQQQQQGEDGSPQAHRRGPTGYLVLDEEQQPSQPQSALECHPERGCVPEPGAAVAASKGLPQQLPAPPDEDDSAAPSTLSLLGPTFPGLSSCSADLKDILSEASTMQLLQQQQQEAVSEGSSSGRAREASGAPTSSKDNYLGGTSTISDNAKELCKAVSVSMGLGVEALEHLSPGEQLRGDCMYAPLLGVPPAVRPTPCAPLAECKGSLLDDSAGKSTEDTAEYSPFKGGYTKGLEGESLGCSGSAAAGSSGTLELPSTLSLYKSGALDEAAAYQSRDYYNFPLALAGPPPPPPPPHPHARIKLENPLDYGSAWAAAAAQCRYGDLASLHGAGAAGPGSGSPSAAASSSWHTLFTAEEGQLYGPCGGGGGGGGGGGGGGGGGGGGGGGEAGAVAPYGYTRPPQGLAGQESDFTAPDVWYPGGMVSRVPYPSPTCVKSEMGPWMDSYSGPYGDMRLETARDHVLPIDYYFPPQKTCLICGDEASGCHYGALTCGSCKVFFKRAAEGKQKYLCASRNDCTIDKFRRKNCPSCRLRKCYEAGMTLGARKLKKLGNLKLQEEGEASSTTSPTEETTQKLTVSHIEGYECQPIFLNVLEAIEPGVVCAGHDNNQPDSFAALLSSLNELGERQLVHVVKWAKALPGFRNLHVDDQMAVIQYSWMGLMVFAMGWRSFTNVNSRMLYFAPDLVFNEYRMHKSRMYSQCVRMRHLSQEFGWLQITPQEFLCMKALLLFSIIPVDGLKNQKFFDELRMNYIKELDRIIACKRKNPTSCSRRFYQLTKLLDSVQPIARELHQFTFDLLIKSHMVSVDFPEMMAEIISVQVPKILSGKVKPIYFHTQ
Summary of the method: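 Steps: seed AR-UAS-bla GripTite HEK293 cells, incubate 4 h at 37C; pin in test compound, then add agonist R1881; incubate 16 h at 37C; add LiveBLAzer B/G FRET substrate, 2 h at room temperature; read fluorescence.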

[14] = target: Androgen receptor (Homo sapiens) (UniProt P10275); assay: qHTS assay to identify small molecule agonists of the androgen receptor (AR) signaling pathway (AID 743036; active = well fitted activation curve with a large enough effect in the signal ratio in the repeat runs, with a control signal flat, not every such curve was filed as active; inconclusive = weak or mixed curves, or effect the other way; inactive = no such curve, though single readings can be large or run the other way; the % refers to the signal ratio; also: % is scaled to controls: 0 for no effect and ±100 for the full control effect); details: HEK293 AR-UAS-bla GripTite, beta-lactamase FRET ratio, 16 h; activation: at 62.4 µM (top of the series) unless noted
Summary of the method: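 Agonist activity was scored by beta-lactamase reporter fluorescence in stably transfected HEK293 cells exposed to compounds for 16 h at 37C and 5% CO2. Substrate loading took 2 h at room temperature.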

[15] = qHTS assay to identify small molecule antagonists of the androgen receptor (AR) signaling pathway using the MDA cell line - cell viability counter screen (AID 743041; also: potency is read from the fitted curve at half-maximal effect; nearly all actives have a fitted effect of over 45% in size); details: MDA-kb2 viability, CellTiter-Fluor, 16 h, cells co-treated with R1881 androgen agonist; viability change, negative = cytotoxic: at 70.3 µM (top of the series) unless noted
Summary of the method: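 Using the breast carcinoma line MDA-kb2 AR-luc, test chemicals were co-incubated with R1881 for 16 h; CellTiter-Fluor reagent, added at 15.5 h, provided a fluorescence measure of live cells.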

[16] = target: Androgen receptor (Homo sapiens) (UniProt P10275); assay: qHTS assay to identify small molecule antagonists of the androgen receptor (AR) signaling pathway using the MDA cell line (AID 743042)
Summary of the method: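 Antagonist mode: compounds plus R1881 agonist added to MDA-kb2 AR-luc cells, incubated 16 h at 37C. Luciferase reporter luminescence quantified, with multiplexed CellTiter-Fluor readout for cell viability.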

[17] = qHTS assay to identify small molecule antagonists of the estrogen receptor alpha (ER-alpha) signaling pathway - cell viability counter screen (AID 743074; calls by dose curve; also: potency is read from the fitted curve at half-maximal effect; nearly all actives have a fitted effect of over 45% in size)
Tags tell the direction and shape of the fitted curve or compound fluorescence and quenching.

## CCCCCCCCCCCCCCCO
[1]
  Potency: inactive
[2]
  Potency: inconclusive: 21.7 µM [cytotoxic, full curve, poor fit]
[3]
  Potency: inconclusive: 68.6 µM [cytotoxic, single point]
[4]
  activity change, negative = cytotoxic: inconclusive: 32.5%

## CC1=C(/C=C/C(C)=C/C=C/C(C)=C/CO)C(C)(C)CCC1
[1]
  Potency: inconclusive: 33.5 µM [cytotoxic, single point] and inconclusive: 77.9 µM [cytotoxic, single point]
[2]
  Potency: inconclusive: 33.5 µM [cytotoxic]
[3]
  Potency: inconclusive: 33.5 µM [cytotoxic, single point]
[5]
  Potency: inconclusive: 46 µM [cytotoxic]
[4]
  Potency: inconclusive: 69.4 µM [cytotoxic, single point] and inconclusive: 72.3 µM [cytotoxic, single point]
[6]
  Potency: inconclusive: 72.3 µM [inhibitor, single point]
[7]
  Potency: inconclusive: 31 µM [activator, partial curve, poor fit]
  activation: inconclusive: -8.78% [phenotype inactive] [at 95.2 µM]
[8]
  activity, negative = inhibition: inconclusive: -29.5% [at 79.1 µM]
[9]
  Potency: active: 8.49 µM [inconclusive]
[10]
  Potency: active: 0.944 µM
[11]
  Potency: active: 15 µM and active: 7.79 µM
Aromatase (Homo sapiens)
  Potency: inconclusive: 21.1 µM [inhibitor, partial curve]
[12]
  Potency: inconclusive: 69.4 µM [cytotoxic]

## OC1CCC(C2CCCCC2)CC1 (stereo not drawn)
[1]
  Potency: inactive
[2]
  Potency: inconclusive: 27.3 µM [cytotoxic, partial curve]
[3]
  Potency: inconclusive: 54.5 µM [cytotoxic, partial curve, poor fit]
[7]
  Potency: inactive
[10]
  Potency: inconclusive: 48.6 µM [activator, partial curve, poor fit]

## c1ccc2c(c1)ccc1ncccc12
[1]
  Potency: inconclusive: 10.8 µM [rising, partial curve, poor fit]
[2]
  Potency: inconclusive: 21.5 µM [cytotoxic, partial curve]
[3]
  Potency: inconclusive: 68.1 µM [cytotoxic]
[13]
  activity change, negative = inhibition: inconclusive: 6.26%
[14]
  Potency: inactive
[15]
  Potency: inconclusive: 304 nM [rising, full curve, poor fit]
[16]
  Potency: inconclusive: 68.1 µM [inhibitor, single point] and inconclusive: 21.7 µM [inhibitor, partial curve]
[4]
  Potency: inconclusive: 2.15 µM [rising, full curve, poor fit]

## CO[Si](OC)(OC)OC
[1]
  activity change, negative = cytotoxicity: inconclusive: -37.3% [cytotoxic]
[2]
  Potency: inconclusive: 66.9 µM [cytotoxic, single point]
[3]
  Potency: inconclusive: 66.9 µM [cytotoxic, single point]
[4]
  Potency: inconclusive: 66.9 µM [cytotoxic, single point]
[6]
  Potency: inconclusive: 66.9 µM [inhibitor, single point]

## CCCCCC(C)OC(=O)COc1ccc(Cl)c2cccnc12 (stereo not drawn)
[1]
  Potency: inconclusive: 27.3 µM [cytotoxic, partial curve, poor fit]
[2]
  Potency: inactive
[3]
  Potency: inconclusive: 24.3 µM [cytotoxic, partial curve]
[5]
  Potency: inconclusive: 61.6 µM [cytotoxic, partial curve, poor fit]
[4]
  Potency: inconclusive: 68.6 µM [cytotoxic]
[6]
  Potency: inconclusive: 68.6 µM [inhibitor, single point]
[8]
  Potency: inconclusive: 54.9 µM [rising, partial curve, poor fit]
[17]
  Potency: inconclusive: 61.6 µM [cytotoxic, single point]
Aromatase (Homo sapiens)
  Potency: inconclusive: 77 µM [inhibitor, single point]

## CCCCC(CC)COC(=O)C(C#N)=C(c1ccccc1)c1ccccc1 (stereo not drawn)
[1]
  Potency: active: 11.9 µM and inconclusive: 1.93 µM [cytotoxic, full curve, poor fit]
[2]
  Potency: inconclusive: 9.44 µM [cytotoxic, partial curve]
[3]
  Potency: active: 13.3 µM
[4]
  Potency: inactive
[6]
  Potency: inconclusive: 33.5 µM [inhibitor, single point] and inconclusive: 24.3 µM [inhibitor]
[7]
  activation: inconclusive: -4.05% [activator]
[17]
  Potency: inconclusive: 23.9 µM [cytotoxic, single point] and inconclusive: 9.77 µM [cytotoxic, full curve, poor fit]
[12]
  Potency: inconclusive: 27.3 µM [cytotoxic, partial curve]
